From the supplement of paper PMC7826260
The other results are listed elsewhere or left out. Viral Rep nickase domains cut single-stranded DNA in vitro for 1 h at 37 °C with 3 µM enzyme; only the middle of the 90-letter strands is printed. Uncut reads are compared with the no-enzyme pool on a log2 scale; more negative means more cut, near 0 not cut, and no call is made. Counts are relative to all reads; where an enzyme cuts many sequences, the uncut ones exceed 0.

Columns and labels:
Test in all cases: uncleaved DNA left, log2 of reads against the no-enzyme library (log2 ratio); higher = less cleavage (more negative = more Rep cleavage of the k-mer); sequences stand for … in CTCGTCCG…ACCGGAGA
[1] = test system: T1, Rep nickase domain of Muscovy duck circovirus
T1 sequence (residues 1-111, tag not shown): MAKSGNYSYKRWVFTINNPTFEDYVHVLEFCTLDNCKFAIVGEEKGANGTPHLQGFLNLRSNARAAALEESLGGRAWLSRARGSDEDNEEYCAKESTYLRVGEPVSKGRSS
Experimental: (§1)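 A pool of 90-nt single-stranded DNAs with seven random bases just before the constant AC of the nick site (name = the seven bases) was cut by 3 µM recombinant His6-SUMO-tagged Rep nickase domain (300 nM DNA, 50 mM HEPES pH 8.0, 50 mM NaCl, 1 mM MnCl2, 1 h, 37 °C, three replicates). Uncut DNA was amplified and sequenced.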

[2] = test system: T2, Rep nickase domain of banana bunchy top virus
T2 sequence (residues 1-94, tag not shown): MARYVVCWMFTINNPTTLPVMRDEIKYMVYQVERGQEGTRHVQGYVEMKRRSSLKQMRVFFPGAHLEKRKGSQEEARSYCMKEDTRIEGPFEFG
Experimental: as §1

[3] = test system: T3, Rep nickase domain of cabbage leaf curl virus
T3 sequence (residues 1-116, tag not shown): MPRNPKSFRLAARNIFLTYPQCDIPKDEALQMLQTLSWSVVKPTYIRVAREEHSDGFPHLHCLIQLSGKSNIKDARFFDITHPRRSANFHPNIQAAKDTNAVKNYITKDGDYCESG
Experimental: as §1

[4] = test system: T4, Rep nickase domain of chickpea chlorotic dwarf virus
T4 sequence (residues 1-124, tag not shown): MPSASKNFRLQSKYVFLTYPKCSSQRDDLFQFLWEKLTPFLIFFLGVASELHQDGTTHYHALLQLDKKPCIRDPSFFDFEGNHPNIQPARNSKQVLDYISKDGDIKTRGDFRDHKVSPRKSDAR
Experimental: as §1

[5] = test system: T5, Rep nickase domain of faba bean necrotic yellows virus
T5 sequence (residues 1-98, tag not shown): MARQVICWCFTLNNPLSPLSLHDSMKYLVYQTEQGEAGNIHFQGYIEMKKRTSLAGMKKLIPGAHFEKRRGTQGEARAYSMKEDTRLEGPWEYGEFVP
Experimental: as §1

[6] = test system: T6, Rep nickase domain of maize striate mosaic virus
T6 sequence (residues 1-117, tag not shown): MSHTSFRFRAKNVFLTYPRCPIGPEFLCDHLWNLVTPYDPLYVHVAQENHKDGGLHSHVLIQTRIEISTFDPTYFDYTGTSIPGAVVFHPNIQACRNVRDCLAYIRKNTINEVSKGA
Experimental: as §1

[7] = test system: T7, Rep nickase domain of porcine circovirus 2
T7 sequence (residues 2-116, tag not shown): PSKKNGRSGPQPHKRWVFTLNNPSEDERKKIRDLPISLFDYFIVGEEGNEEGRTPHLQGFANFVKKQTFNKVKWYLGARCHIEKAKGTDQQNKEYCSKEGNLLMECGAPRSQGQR
Experimental: as §1

[8] = test system: T8, Rep nickase domain of tomato golden mosaic virus
T8 sequence (residues 1-124, tag not shown): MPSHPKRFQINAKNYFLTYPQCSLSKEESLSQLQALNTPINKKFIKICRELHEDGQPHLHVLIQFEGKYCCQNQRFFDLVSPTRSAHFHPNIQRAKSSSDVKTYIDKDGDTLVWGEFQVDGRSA
Experimental: as §1

[9] = test system: T9, Rep nickase domain of tomato yellow leaf curl virus
T9 sequence (residues 1-136, tag not shown): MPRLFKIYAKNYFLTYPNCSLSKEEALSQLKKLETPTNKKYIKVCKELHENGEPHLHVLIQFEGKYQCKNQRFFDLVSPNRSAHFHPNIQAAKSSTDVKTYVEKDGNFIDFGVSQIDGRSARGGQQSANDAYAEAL
Experimental: as §1

[10] = test system: T10, Rep nickase domain of wheat dwarf virus
T10 sequence (residues 1-137, tag not shown): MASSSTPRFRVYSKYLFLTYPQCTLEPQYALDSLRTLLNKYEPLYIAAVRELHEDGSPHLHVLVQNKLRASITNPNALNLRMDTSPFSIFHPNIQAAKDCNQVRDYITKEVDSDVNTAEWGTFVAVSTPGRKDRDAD
Experimental: as §1

| Sequence | uncleaved DNA left (log2) [1] | uncleaved DNA left (log2) [2] | uncleaved DNA left (log2) [3] | uncleaved DNA left (log2) [4] | uncleaved DNA left (log2) [5] | uncleaved DNA left (log2) [6] | uncleaved DNA left (log2) [7] | uncleaved DNA left (log2) [8] | uncleaved DNA left (log2) [9] | uncleaved DNA left (log2) [10] |
| --- | --- | --- | --- | --- | --- | --- | --- | --- | --- | --- |
| GGACGCC | 0.0661 | 0.0313 | 0.77 | 1.62 | -0.0234 | 2.15 | 0.154 | 0.0826 | -0.0859 | 0.155 |
| ACTGATA | -0.0335 | 0.00207 | -0.247 | -0.00865 | 0.00703 | 0.444 | -0.15 | 0.0378 | -0.145 | -0.056 |
| GCGCTTC | -0.0522 | -0.0423 | 0.08 | 0.198 | 0.00287 | -0.053 | 0.0258 | -0.061 | -0.0241 | 0.00648 |
| TTACAAC | -0.0658 | -0.0181 | -0.142 | -2.6 | 0.0141 | -0.297 | -0.0291 | -0.0282 | -0.0965 | -0.0259 |
| GAAGCTC | 0.152 | 0.108 | 0.243 | 0.36 | 0.0581 | 0.787 | -0.0561 | 0.138 | 0.0505 | 0.00745 |
| GACCACC | -0.0893 | -0.0926 | 0.147 | 0.136 | -0.112 | 0.252 | -0.167 | -0.0329 | -0.0587 | 0.0743 |
| TCCCGCC | -0.0747 | -0.311 | -0.0117 | -0.3 | -0.0695 | -0.743 | -0.0142 | -0.172 | -0.0888 | -0.132 |
| ACGAGCC | 0.0601 | 0.0719 | -0.192 | 0.153 | 0.0339 | -0.681 | -0.233 | 0.0865 | 0.0071 | 0.0192 |
| CGGAGGG | -0.0259 | -0.0085 | -0.14 | 0.281 | 0.0388 | -0.366 | 0.0801 | -0.16 | -0.032 | -0.0517 |
| GGTCGGA | 0.122 | -0.0162 | 0.571 | 1.2 | -0.186 | 1.64 | 0.187 | 0.0871 | 0.116 | 0.0561 |
| GATAGAA | 0.00626 | 0.102 | 0.23 | 0.671 | 0.0613 | 0.742 | 0.0509 | 0.0573 | 0.021 | 0.115 |
| CCTGTGA | -0.00738 | -0.0367 | -0.328 | -0.683 | 0.0788 | -1.01 | 0.00737 | -0.185 | -0.024 | -0.134 |
| AGGTTAA | 0.0398 | 0.102 | -0.00504 | 0.107 | -0.147 | 0.16 | -0.0514 | 0.0273 | -0.0097 | 0.0665 |
| AGTGCCA | -0.00975 | 0.101 | 0.105 | 0.338 | 0.0499 | 0.653 | -0.0831 | 0.103 | 0.00672 | 0.0236 |
| GACTGCC | -0.0533 | -0.102 | -0.0626 | 0.294 | -0.0854 | 0.325 | -0.055 | 0.058 | -0.128 | -0.115 |
| CTTTGGC | -0.202 | -0.201 | -0.544 | -0.837 | -0.0243 | -1.28 | -0.0154 | -0.23 | -0.103 | -0.224 |
| CGATGAC | 0.0209 | -0.0398 | -0.108 | 0.482 | -0.00372 | 0.157 | 0.0614 | -0.158 | 0.0115 | 0.0127 |
| TTTTGTG | 0.00449 | -0.0924 | -0.621 | 0.0853 | 0.0897 | -0.934 | 0.196 | -0.0597 | 0.0776 | -0.14 |
| CTCGTGA | -0.0748 | 0.107 | -0.229 | -0.616 | -0.107 | -1.04 | -0.0128 | -0.108 | -0.112 | 0.0513 |
| GCGGATC | 0.136 | 0.133 | 0.76 | 1.54 | 0.157 | 1.97 | 0.241 | 0.106 | 0.122 | 0.148 |
| GTTCTGG | -0.0308 | -0.114 | 0.304 | 0.83 | -0.191 | 1.28 | 0.00103 | -0.0662 | -0.0478 | -0.0171 |
| GCGGTAG | 0.082 | 0.0517 | -0.0914 | 0.294 | 0.0813 | -0.298 | 0.141 | -0.0379 | -0.014 | -0.0318 |
| ACCAAAC | 0.0162 | 0.0766 | -0.13 | -0.382 | 0.148 | -0.862 | 0.0313 | -0.0464 | -0.114 | 0.0916 |
| CAACTTC | -0.0791 | 0.0192 | -0.215 | -1.83 | 0.123 | -0.862 | -0.209 | -0.0305 | 0.153 | -0.019 |
| TGCTTAA | 0.219 | 0.109 | 0.168 | -0.0163 | 0.0576 | -0.175 | 0.0795 | 0.0989 | 0.254 | 0.125 |
| CAGATTA | -0.177 | -0.113 | -0.301 | -2.25 | -0.0666 | -0.531 | -1.48 | -0.0341 | -0.0589 | -0.165 |
| CACATAG | 0.123 | -0.0123 | -0.784 | 0.129 | 0.00935 | -0.697 | 0.227 | 0.115 | 0.142 | -0.111 |
| AGTTTGA | 0.00178 | -0.0945 | -0.0214 | 0.0602 | 0.0854 | -0.503 | -0.346 | 0.0448 | 0.0704 | -0.012 |
| GAGTCTG | 0.0125 | 0.128 | 0.0843 | 0.758 | 0.00439 | 1.55 | -0.117 | 0.0922 | -0.0415 | 0.0987 |
| CGTACTT | 0.254 | 0.0895 | 0.175 | 0.02 | 0.127 | 1.37 | -0.089 | 0.0215 | 0.0141 | 0.333 |
